In the antibiotic and cytotoxicity screens of Wong et al. (2023):
The list shows a part of the results.

tested on: HSkMC (human skeletal muscle cells); test: cytotoxicity call (relative viability < 0.9); conditions: 10 µM

Compound	cytotoxicity call
C[C@H](CO)N1C[C@H](C)[C@H](CN(C)Cc2ccc(F)cc2)Oc2ncc(C#Cc3cccnc3)cc2C1=O	inactive
CCC(C)C(=O)OC1CC(O)C=C2C=CC(C)C(CCC(O)CC(O)CC(=O)[O-])C21.[Na+] (centres undefined)	inactive
C[C@H]1CN([C@@H](C)CO)C(=O)c2cccc(NC(=O)c3ccc(-c4nccs4)cc3)c2O[C@@H]1CN(C)C(=O)Nc1ccc(C(F)(F)F)cc1	inactive
COc1ccc(CN(C)C[C@@H]2OCCCC[C@@H](C)Oc3ccc(NC(=O)NC(C)C)cc3C(=O)N([C@H](C)CO)C[C@H]2C)cc1	inactive
CC(=O)OC[C@@H]1O[C@H](O[C@@H]2CC[C@]34C[C@]35CC[C@]3(C)[C@@H]([C@@H](C)[C@H]6C[C@@H](O)C(C)(C)O6)CC[C@@]3(C)[C@H]5CC[C@H]4[C@H]2C)[C@@H](O)[C@H](OC(C)=O)[C@@H]1O[C@H]1O[C@@H](CO)[C@@H](O[C@H]2O[C@@H](CO)[C@@H](O)[C@@H](O)[C@@H]2O)[C@@H](O[C@H]2O[C@@H](C)[C@@H](O)[C@@H](O)[C@@H]2O)[C@@H]1O	inactive
CN1CCN(C(=O)C[C@@H]2CC[C@H]3[C@@H](COC[C@@H](O)CN3S(=O)(=O)c3cccc(F)c3)O2)CC1	inactive
Cc1ccc(S(=O)(=O)N[C@@H]2CC[C@H](CCNC(=O)CN3CCOCC3)O[C@@H]2CO)cc1	inactive
O=C1CCNc2cc3ccccc3cc21	active
C[C@H]1CN([C@@H](C)CO)C(=O)c2cc(NS(=O)(=O)c3ccccc3)ccc2O[C@@H]1CN(C)CC1CC1	inactive

tested on: HepG2; test: cytotoxicity call (relative viability < 0.9); conditions: 10 µM

Compound	cytotoxicity call
COc1ccc(S(=O)(=O)N(C)C[C@@H]2Oc3ccc(NC(=O)Cc4ccccc4)cc3C(=O)N([C@H](C)CO)C[C@H]2C)cc1	inactive
C[C@@H]1CCCCO[C@@H](CN(C)S(=O)(=O)c2ccc(F)cc2)[C@H](C)CN([C@@H](C)CO)C(=O)c2cc(NS(C)(=O)=O)ccc2O1	inactive
Cc1ccc(S(=O)(=O)Nc2ccc3c(c2)C(=O)N([C@H](C)CO)C[C@H](C)[C@@H](CN(C)C(=O)NC2CCCCC2)OCCCC[C@@H](C)O3)cc1	inactive
Cc1ccc(S(=O)(=O)N(C)C[C@H]2OCCCC[C@H](C)Oc3ccc(NC(=O)Nc4cccc5ccccc45)cc3C(=O)N([C@@H](C)CO)C[C@H]2C)cc1	inactive
O=C(Cc1ccncc1)NCC[C@@H]1CC[C@@H](NC(=O)C2CCOCC2)[C@H](CO)O1	inactive
O=C(Cn1cc([N+](=O)[O-])cn1)n1cccn1	inactive
CCC(c1ccc(O)cc1)C(CC)c1ccc(O)cc1 (centres undefined)	inactive
CC(C)NC(=O)Nc1ccc2c(c1)C(=O)N(C)[C@H]1CC[C@H](CC(=O)NCc3ccc(F)cc3)O[C@@H]1CO2	inactive
C[C@H](CO)N1C[C@H](C)[C@H](CN(C)C(=O)Nc2cccc3ccccc23)OCCCC[C@H](C)Oc2ccc(NC(=O)c3ccccc3)cc2C1=O	inactive
C[C@H](CO)N1C[C@H](C)[C@H](CN(C)CC2CC2)Oc2ccc(NC(=O)CCN3CCOCC3)cc2CC1=O	inactive
COc1cc2c(cc1OC)CN(C(=O)[C@H]1[C@@H]3C(=O)O[C@@H](c4ccccc4)[C@@H](c4ccccc4)N3[C@@H](c3ccc(O)cc3)[C@]13C(=O)Nc1ccccc13)CC2	inactive
C[C@@H]1CCCCO[C@@H](CN(C)S(=O)(=O)c2ccc(Cl)cc2)[C@H](C)CN([C@H](C)CO)C(=O)c2cc(NC(=O)Nc3ccc4c(c3)OCO4)ccc2O1	inactive
C=CCC[C@@H](Cc1ccc(F)cc1)C(=O)O[C@H](CNC(=O)[C@@H](CC=C)CC(=O)N[C@H](CO)Cc1ccccc1)c1ccccc1	inactive
CC(C)C[C@H]1NC(=O)[C@@H](C)NC(=O)[C@@]23C(=O)N[C@@H](Cc4ccccc4)[C@H]2[C@H](C)[C@@]2(C)O[C@H]2[C@@H]3/C=C/C/C=C\CNC1=O	inactive
C[C@H]1CN([C@@H](C)CO)C(=O)c2cc(NC(=O)CCCN(C)C)ccc2O[C@@H]1CN(C)Cc1ccncc1	inactive
C[C@H](CO)N1C[C@H](C)[C@@H](CN(C)C(=O)Nc2ccccc2C(F)(F)F)OCc2cnnn2CCCC1=O	inactive
COC1=CC(=O)C(O)=CC1=CC=Cc1ccccc1	active
C[C@H]1CN([C@@H](C)CO)C(=O)c2cc(NC(=O)Cc3cn(C)c4ccccc34)ccc2O[C@@H]1CN(C)Cc1ccc(-c2ccccc2)cc1	active
CN(C)CCC(=O)N1CCNCC1	inactive
O=C(C[C@@H]1CC[C@@H]2[C@H](COC[C@@H](O)CN2C(=O)Nc2ccc(C(F)(F)F)cc2)O1)NCc1ccncn1	inactive

Compound	cytotoxicity call
COc1ccc(NC(=O)N(C)C[C@@H]2OCCCC[C@@H](C)Oc3ccc(NC(=O)NC4CCCCC4)cc3C(=O)N([C@H](C)CO)C[C@H]2C)cc1	inactive
C[C@@H]1CN([C@@H](C)CO)C(=O)c2cccc(NS(=O)(=O)c3cn(C)cn3)c2O[C@@H]1CN(C)CC1CCCCC1	inactive
C[C@H]1CN([C@@H](C)CO)C(=O)c2cc(NC(=O)c3ccncc3)ccc2O[C@@H]1CN(C)S(=O)(=O)c1ccccc1	inactive
CNC(=O)[C@@H](c1ccccc1)N1CCc2cc(OC)c(OC)cc2[C@@H]1CCc1ccc(C(F)(F)F)cc1	inactive
Cc1cc(C(=O)O)n[nH]1	inactive
C[C@H](CO)N1C[C@H](C)[C@@H](CN(C)C(=O)Nc2ccc(F)cc2)Oc2ccc(NC(=O)C3CC3)cc2CC1=O	inactive
CC(C)NC(=O)Nc1cccc2c1O[C@@H](CN(C)S(=O)(=O)c1cn(C)cn1)[C@@H](C)CN([C@H](C)CO)C2=O	inactive
C[C@H]1CN([C@@H](C)CO)C(=O)c2cc(C#CC(C)(C)O)cnc2O[C@@H]1CN(C)C(=O)CN(C)C	inactive
NCCCCCC(O)(P(=O)(O)O)P(=O)(O)O	inactive
CC1(C)C2CCC1(C)C(O)C2 (centres undefined)	inactive
COc1ccc(S(=O)(=O)Nc2ccc3c(c2)C(=O)N([C@H](C)CO)C[C@@H](C)[C@@H](CN(C)Cc2ccc(C(=O)O)cc2)OCCCC[C@@H](C)O3)cc1	inactive
C[C@H](CO)N1C[C@H](C)[C@H](CN(C)Cc2ccc(F)cc2)Oc2ncc(C#Cc3cccnc3)cc2C1=O	active
CCC(C)C(=O)OC1CC(O)C=C2C=CC(C)C(CCC(O)CC(O)CC(=O)[O-])C21.[Na+] (centres undefined)	inactive
C[C@H]1CN([C@@H](C)CO)C(=O)c2cccc(NC(=O)c3ccc(-c4nccs4)cc3)c2O[C@@H]1CN(C)C(=O)Nc1ccc(C(F)(F)F)cc1	inactive
COc1ccc(CN(C)C[C@@H]2OCCCC[C@@H](C)Oc3ccc(NC(=O)NC(C)C)cc3C(=O)N([C@H](C)CO)C[C@H]2C)cc1	inactive
CC(=O)OC[C@@H]1O[C@H](O[C@@H]2CC[C@]34C[C@]35CC[C@]3(C)[C@@H]([C@@H](C)[C@H]6C[C@@H](O)C(C)(C)O6)CC[C@@]3(C)[C@H]5CC[C@H]4[C@H]2C)[C@@H](O)[C@H](OC(C)=O)[C@@H]1O[C@H]1O[C@@H](CO)[C@@H](O[C@H]2O[C@@H](CO)[C@@H](O)[C@@H](O)[C@@H]2O)[C@@H](O[C@H]2O[C@@H](C)[C@@H](O)[C@@H](O)[C@@H]2O)[C@@H]1O	inactive
CN1CCN(C(=O)C[C@@H]2CC[C@H]3[C@@H](COC[C@@H](O)CN3S(=O)(=O)c3cccc(F)c3)O2)CC1	inactive
Cc1ccc(S(=O)(=O)N[C@@H]2CC[C@H](CCNC(=O)CN3CCOCC3)O[C@@H]2CO)cc1	inactive
O=C1CCNc2cc3ccccc3cc21	active
C[C@H]1CN([C@@H](C)CO)C(=O)c2cc(NS(=O)(=O)c3ccccc3)ccc2O[C@@H]1CN(C)CC1CC1	inactive
